The values below come from PMC4336329 (PLoS ONE, 2015).

Hit rate of the full screen: of about 310,000 compounds, about 2,200 (0.71%) showed an effect of 50% or more. The effect is printed as a negative number. The list shows a part of the results.

This assay deals with human ether-à-go-go-related gene (hERG) potassium channel (human, UniProt Q12809). The experiment in a line: primary screen, population patch clamp on CHO cells stably expressing hERG.
Chain of human ether-à-go-go-related gene (hERG) potassium channel (Q12809 whole entry, looked up): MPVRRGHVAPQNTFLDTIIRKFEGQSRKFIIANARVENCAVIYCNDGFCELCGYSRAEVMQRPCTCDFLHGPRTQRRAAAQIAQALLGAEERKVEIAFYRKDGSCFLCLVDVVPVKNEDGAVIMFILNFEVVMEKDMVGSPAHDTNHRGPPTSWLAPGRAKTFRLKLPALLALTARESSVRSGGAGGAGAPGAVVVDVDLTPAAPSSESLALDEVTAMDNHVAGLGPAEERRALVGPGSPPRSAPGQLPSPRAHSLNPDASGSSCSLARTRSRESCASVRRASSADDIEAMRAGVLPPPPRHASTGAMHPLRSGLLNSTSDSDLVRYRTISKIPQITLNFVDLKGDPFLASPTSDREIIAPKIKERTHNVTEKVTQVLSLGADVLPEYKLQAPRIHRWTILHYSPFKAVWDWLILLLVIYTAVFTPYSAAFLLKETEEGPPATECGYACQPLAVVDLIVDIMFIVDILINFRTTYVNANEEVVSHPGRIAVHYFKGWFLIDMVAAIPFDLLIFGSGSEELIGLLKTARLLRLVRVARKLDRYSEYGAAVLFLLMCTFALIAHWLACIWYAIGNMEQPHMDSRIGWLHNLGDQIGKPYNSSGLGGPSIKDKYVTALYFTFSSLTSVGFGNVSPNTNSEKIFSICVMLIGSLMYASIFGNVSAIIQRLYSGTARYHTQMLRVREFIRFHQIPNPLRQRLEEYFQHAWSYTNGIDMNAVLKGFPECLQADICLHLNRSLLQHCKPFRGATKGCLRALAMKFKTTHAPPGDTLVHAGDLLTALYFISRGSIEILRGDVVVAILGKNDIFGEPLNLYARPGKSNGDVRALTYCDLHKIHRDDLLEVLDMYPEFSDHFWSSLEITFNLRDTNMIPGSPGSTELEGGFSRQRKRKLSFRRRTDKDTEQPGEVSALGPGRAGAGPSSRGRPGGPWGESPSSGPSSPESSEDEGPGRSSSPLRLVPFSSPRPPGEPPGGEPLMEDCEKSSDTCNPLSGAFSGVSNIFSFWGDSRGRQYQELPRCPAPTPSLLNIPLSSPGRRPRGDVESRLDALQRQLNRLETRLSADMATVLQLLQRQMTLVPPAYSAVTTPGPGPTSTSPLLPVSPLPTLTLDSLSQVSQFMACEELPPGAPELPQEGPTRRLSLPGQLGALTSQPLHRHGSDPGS
Turning to `CCCn1c(SCC(=O)N2CCOCC2)nnc1-c1ccncc1`, the “hERG current change (%, negative = inhibition) at 1uM” value is on record as 5.28%.
For `CCOc1ccc(C(=O)NCCCCNC(=O)c2ccc(OCC)cc2)cc1` the value was 21.1%; for `O=C(C1=C[C@@H](C2CCCCC2)C[C@@H](OCCCCO)O1)N1CCN(Cc2ccc3c(c2)OCO3)CC1`, -6.55%; for `CCC(O)(C#CCN1CCCCC1)CC`, 6.11%.
Regarding `CCNc1nc(NOC)nc(OCC#N)n1`, the “hERG current change (%, negative = inhibition) at 1uM” value was determined as 9.54%.
For `CCC(C)Sc1nc2c(c(=O)[nH]1)C(c1cccs1)C1=C(CCCC1=O)N2` (centres unmarked) the value was -1.94%; for `Cc1cc(C)nc(Nc2nc(=O)c3ccccc3s2)n1`, 9.49%; for `CCOc1ccccc1N1CCN(C(=O)[C@@H]2CCCN2C2=NS(=O)(=O)c3ccccc32)CC1`, 2.01%.
For `CC(C)OCCCNS(=O)(=O)c1ccc2c(c1)oc(=O)n2C` the value was 13.5%; for `COc1ccc(/C=N/NC(=O)c2cc(-c3ccccc3OC)nc3ccccc23)cc1COC(C)=O`, 15%; for `O=C(COc1ncnc2ccccc12)Nc1ccc(S(=O)(=O)N2CCOCC2)cc1`, 13.2%.
Turning to `COc1ccc(C(=O)NCC2CCCN2S(=O)(=O)c2cccs2)cc1OC` (centres unmarked), the “hERG current change (%, negative = inhibition) at 1uM” value turned out to be 8.28%.
To `OC(CNCc1ccco1)Cn1c2ccccc2c2ccccc21` (centres unmarked) belongs -7.72%; to `Cc1ccc(OCCNC(=O)/C=C/c2ccccc2)cc1`, 4.51%.
As to `CC(=O)c1cccc(CN2CCC(CO)(Cc3ccccc3)CC2)c1`, the “hERG current change (%, negative = inhibition) at 1uM” value was 7.16%.
For `CC(NC(=O)COC(=O)Cc1ccsc1)c1ccccc1` (centres unmarked) the value was 1.58%; for `CCN(CC)S(=O)(=O)c1ccc2c(c1)c(=O)c(C(=O)N1CCc3ccccc3C1)cn2C`, -21.2%; for `O=C(Nc1cc(Br)ccc1O)c1cc(-c2ccco2)on1`, 14.2%.
For `CC(OC(=O)c1cc(=O)[nH]c2ccccc12)C(=O)NC1CCCC1` (centres unmarked) the value was 2.91%.
Consider `COc1cccc(NC(=O)CCNS(=O)(=O)c2ccc(Br)s2)c1`, for which the “hERG current change (%, negative = inhibition) at 1uM” value came out at 5.53%.
To `COc1ccccc1CNC(=O)C1CCN(C(=O)N(C)C)CC1` belongs 3.9%; to `Cc1ccc2nsnc2c1S(=O)(=O)N(CCO)Cc1cc2cc3c(cc2[nH]c1=O)OCCO3`, 11.7%; to `Cc1cc(NC(=O)COC(=O)c2oc3c(Cl)cccc3c2C)no1`, 5.54%.
`CCOC(=O)c1cccc(NC(=O)c2c(N)n(C)c(=O)[nH]c2=O)c1`: the “hERG current change (%, negative = inhibition) at 1uM” value worked out at 13%.
For `CCOc1ccc(C(=O)NCC(=O)OCc2cc([N+](=O)[O-])cc3c2OCOC3)cc1OCC` the value was -20%; for `COc1ccc(CNC(=O)[C@H](C)NC(=O)C2CC(=O)N(c3ccc(OC)cc3)C2)cc1` (some centres unmarked), 12.3%; for `COC(=O)CNC(c1ccccc1)c1cc(C)ccc1NC(=O)CNC(=O)OCc1ccccc1` (centres unmarked), 5.03%.
Regarding `CCCN(CCC)Cc1cc2ccccc2c2c1COC2`, the “hERG current change (%, negative = inhibition) at 1uM” value is -14.2%.
To `COc1cc(C(=O)OCC(=O)NC2CC2)cc(OC)c1OC` belongs 5.87%.
For `O=C(NCc1ccccn1)c1cc(-c2ccccc2)nc2ccccc12` the value was -6.96%.
For `O=C1CCc2cc(S(=O)(=O)N3CCC(C(=O)NC4CCCCCCC4)CC3)ccc2N1` the value was 10.9%; for `CC(C)c1cccc(C(C)C)c1NC(=O)CN1C(=O)NC2(CCCCCCC2)C1=O`, 8.87%; for `CCOC(=O)c1nn(-c2ccc(Cl)cc2)c2nc(CC)c(C#N)c(=O)n12`, -2.56%.
Turning to `O=C(NCCc1nc(-c2ccccc2Cl)no1)c1ccccc1`, the “hERG current change (%, negative = inhibition) at 1uM” value came to 8.45%.
For `Cc1ccc(CCNS(=O)(=O)c2cc(Br)cnc2N)cc1`, the “hERG current change (%, negative = inhibition) at 1uM” value turned out to be 11.7%.
Regarding `O=C(Nc1ccc(N2CCOCC2)c(Cl)c1)c1ccc(-n2cnnc2)cc1`, the “hERG current change (%, negative = inhibition) at 1uM” value worked out at 9.75%.
To `CS(=O)(=O)N(CC(=O)NC1CCCCC1)Cc1ccc(Cl)cc1` belongs 1.17%.
To `COc1ccccc1NC(=O)/C(=N/OCc1ccc(F)cc1)C(C)=O` belongs 19.4%; to `COc1cc(C)ccc1OCCCON1C(=O)CCC1=O`, 8.74%; to `CCc1ccc(C(C)(O)C(CN2CCOCC2)c2ccccc2)cc1.Cl` (centres unmarked), 8.26%.
With `COC(=O)c1ccc(C)c(NS(=O)(=O)c2ccc3c(c2)OCCO3)c1`, the “hERG current change (%, negative = inhibition) at 1uM” value is given as 0.932%.
For `CCNC(=O)CC1C(=O)N(c2cccc(C)c2)C(=O)N1CCC(C)C` (centres unmarked), the “hERG current change (%, negative = inhibition) at 1uM” value is -15.2%.
For `O=C(NC(Cc1c[nH]c2ccccc12)C(=O)O)/C(=C\c1ccc2c(c1)OCO2)NC(=O)c1ccccc1` (centres unmarked) the value was 3.23%; for `CN(C)C=O.COc1ccc(NC(=O)COC(=O)c2cc(OC)c(OC)cc2NC(=O)c2ccco2)cc1OC`, 15.6%.
